# Assay results reported in PubChem BioAssay AID2546 (National Center for Advancing Translational Sciences (NCATS), 2010).
# Values joined by “and” are separate entries in the source; they are usually repeats but may differ in a detail not shown here. Identical values can stand only once. Out of some 310,000 compounds screened, about 11,000 (3.5%) were called active. The shares of active, inactive and inconclusive entries below differ from those in the screen. The call rests on the fitted dose curve; in most records, active means well fitted inhibition curve with a large enough effect; inconclusive means small, poorly fitted or top-dose-only effect, or effect the other way; inactive means flat fitted curve, though single readings scatter. Potencies of inconclusive entries are doubtful fits and often do not repeat.
# Assay: VP16 counterscreen qHTS for inhibitors of ROR gamma transcriptional activity;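 further: Gal4-VP16 expression switched on by copper sulfate through the metallothionein promoter; nearly all actives have a fitted effect of over 50% in size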
# Conditions: Drosophila S2 Gal4-VP16 UAS-luciferase, luminescence, 20 h; activity, negative = inhibition: at 53.6 µM (top of the series)
# On the % scale 0 is the no-effect control and ±100 the full control effect; potency means the concentration at half of the fitted maximal effect; tags describe the fitted curve by direction and shape.
SMILES,Potency,"activity, negative = inhibition"
Cc1ccc(-c2c[n+](CC(=O)c3ccc(Br)cc3)c3n2CCCCC3)cc1,"inconclusive: 35.5 µM [inhibitor, single point]",–
Cc1nc(CNS(=O)(=O)c2ccc(Oc3ccccc3)cc2)cs1,"inconclusive: 25.1 µM [inhibitor, single point]",–
Cc1ccc(/C=N/NC(=O)C(C)Oc2ccccc2[N+](=O)[O-])s1 (configuration not stated),"inconclusive: 15.8 µM [inhibitor, single point]",–
O=C(NCc1ccco1)c1csc2c1CCCC2,"inconclusive: 7.08 µM [activator, partial curve]",–
C=CCn1c(-c2cc(Cl)ccc2OC)n[nH]c1=S,active: 17.8 µM,–
COc1ccc(CCNC(=O)Cc2ccc3c(c2)OCO3)cc1OC,"inconclusive: 5.62 µM [activator, single point]",–
O=[N+]([O-])c1c(Nc2ccccn2)cc(Cl)c2nonc12,active: 8.91 µM,–
Nc1nc(CN2CCN(C(c3ccccc3)c3ccccc3)CC2)nc(Nc2ccccc2)n1,"inconclusive: 10 µM [inhibitor, partial curve, poor fit]",–
O=c1c2ccccc2cnn1CCOc1cccc(Br)c1,inactive,–
Cc1ccc(-c2cc(-c3ccccc3)c(C#N)c(N)n2)o1,"inconclusive: 35.5 µM [inhibitor, single point]",–
CCOC(=O)c1cnc2c(C)cc(C)cc2c1Nc1ccc(S(=O)(=O)Nc2ncccn2)cc1,"inconclusive: 0.447 µM [inhibitor, single point]",–
CCCCN(CCCC)S(=O)(=O)c1ccc(NC(=O)CN2CCOCC2)cc1,"inconclusive: 35.5 µM [inhibitor, single point]",–
COC(CNC(=O)C1CCCN1C(=O)OCc1ccccc1)OC (configuration not stated),inactive,–
O=C(NC(=S)Nn1cnc2c(cnn2-c2ccccc2)c1=O)c1ccccc1,"inconclusive: 28.2 µM [inhibitor, single point]",–
C/C(=N\NC(=O)c1cc(-c2cccs2)nc2ccccc12)c1ccccn1,active: 0.562 µM,–
COc1ccc(OC)c(-n2c(CNC3CCN(Cc4ccccc4)CC3)nc3ccccc3c2=O)c1,inactive,–
O=C(CNC(=O)c1cccs1)NCC(=O)OCc1ccc(F)cc1,"inconclusive: 20 µM [inhibitor, single point]",–
N/C(=N\OC(=O)c1ccccc1)c1ccncc1,"inconclusive: 5.62 µM [activator, single point]",–
Cc1ccc2oc(=O)c(/C=C(\O)CC(C)C)nc2c1,"inconclusive: 35.5 µM [inhibitor, single point]",–
N#CCCN1CCn2c1nc1ccccc12,inactive,–
COc1ccc(O)c(C(=O)C2c3ccccc3C(=O)N2c2ccc(C)cc2)c1 (configuration not stated),"inconclusive: 3.98 µM [activator, full curve, poor fit]",–
CS(=O)(=O)c1ncc(Cl)c(C(=O)Nc2ccc3ccccc3c2)n1,active: 4.47 µM,–
CC(=O)N1CCC(N(C(=O)Nc2ccc(C)c(C)c2)C2CCCC2)CC1,"inconclusive: 10 µM [activator, partial curve]",–
FC(F)(F)c1cnc(N2CCCN(C(=S)Nc3ccccc3)CC2)c(Cl)c1,"inconclusive: 35.5 µM [inhibitor, single point]",–

SMILES,Potency,"activity, negative = inhibition"
Cc1ccc(C)c(NC(=S)NCCc2c[nH]c3ccccc23)c1,active: 11.2 µM,–
O=C(Nc1ccc(F)c(F)c1)c1cnc(-c2ccccc2)nc1-c1ccccc1,"inconclusive: 35.5 µM [inhibitor, single point]",–
COc1cccc(C(=O)/C(C#N)=N/Nc2cccc(-c3ccnc(C)n3)c2)c1,"inconclusive: 22.4 µM [inhibitor, single point]",–
CC[C@@H](C)C(NC(=O)OC(C)(C)C)c1cn([C@@H](CCCCNC(=O)OC(C)(C)C)C(=O)N2CCN(C(=O)OC(C)(C)C)CC2)nn1 (some centres not stated),inactive,–
N#Cc1ccc(/C=C/C(=O)c2cccnc2)cc1,"inconclusive: 35.5 µM [inhibitor, single point]",–
COc1cccc(NC(=O)C2CC(=O)N=C(N)S2)c1 (configuration not stated),inactive,–
COC(=O)c1sc2cc(C(F)(F)F)cnc2c1-c1ccccn1,inactive,–
N#Cc1ccc(-c2nc3cc(Cl)ccc3c(=O)n2O)cc1,"inconclusive: 35.5 µM [inhibitor, single point]",–
CC(C)(C)OC(=O)NCc1ccc(NC(=O)c2nc[nH]c2C(=O)N[C@@H](Cc2ccccc2)C(=O)OCc2ccccc2)cc1,"inconclusive: 25.1 µM [inhibitor, single point]",–
Cc1cccc(NCc2cccc3ccccc23)n1,"inconclusive: 12.6 µM [activator, single point]",–
CCN1C(=O)/C(=C\c2ccncc2)SC1=Nc1ccc(C)c(C)c1,"inconclusive: 35.5 µM [inhibitor, single point]",–
S=C(S)O[C@@H]1C[C@@H]2C[C@H]1[C@@H]1CCC[C@H]21,active: 1 µM,–
CC(C)C(c1nnnn1C1CCCC1)N1c2ccccc2CC1C (configuration not stated),–,inactive: -3.22% [at 0.365 µM]
O=C(Oc1ccc(/C=N/O)cc1)c1ccccc1Cl,"inconclusive: 10 µM [inhibitor, partial curve]",–
Cc1cc(N2CCOCC2)nc2ccc(NC(=O)CCC(=O)N3CCN(c4ccc(F)cc4)CC3)cc12,inactive,–
O=c1oc2ccccc2c(Nc2cccc3ccccc23)c1[N+](=O)[O-],"inconclusive: 25.1 µM [inhibitor, single point]",–
COc1ccc(OC)c(S(=O)(=O)N2CCN(c3ncccn3)CC2)c1,inactive,–
COc1ccc(N2Cc3ccccc3C2=O)cc1,"inconclusive: 12.6 µM [inhibitor, single point]",–
CNC(=S)N/N=C/c1ccc(OCc2ccccc2)c(Br)c1,active: 3.55 µM,–
COc1ccc(/C=N/NC(=O)c2cccc([N+](=O)[O-])c2)cc1OS(=O)(=O)c1ccc(C)cc1,"inconclusive: 20 µM [inhibitor, single point]",–
O=C(OCc1nc2ccccc2[nH]1)C12CC3CC(CC(C3)C1)C2,"inconclusive: 14.1 µM [inhibitor, single point]",–
Cc1ccc2nc(-c3cccc(NC(=O)c4ccco4)c3)[nH]c2c1,"inconclusive: 5.62 µM [activator, single point]",–
O=C1CCCC(=O)N1c1ccc(O)cc1,inactive,–
O=C(NC1(C(F)(F)F)N=C(c2ccccc2)NC1=O)c1ccccc1 (configuration not stated),"inconclusive: 5.62 µM [activator, single point]",–

SMILES,Potency,"activity, negative = inhibition"
N#CCc1ccc(NS(=O)(=O)c2ccc(N3CCCC3=O)cc2)cc1,inactive,–
CC(C)(C)OC(=O)[C@H](Cc1ccccc1)NC(=O)c1nc[nH]c1C(=O)N1CCN(C(=O)OC(C)(C)C)CC1,"inconclusive: 28.2 µM [inhibitor, single point]",–
CC1=C(C(=O)Nc2ccc(C)cc2C)C(c2cccc(Cl)c2)n2nc(C(=O)OC(C)C)nc2N1 (configuration not stated),"inconclusive: 35.5 µM [inhibitor, single point]",–
Cc1ccc(C(=O)N/N=C/c2c(O)ccc3ccccc23)cn1,active: 7.08 µM,–
O=[N+]([O-])c1ccc(NNC(=S)Nc2ccc(F)cc2)cc1,active: 11.2 µM,–
COc1cc(OC)cc(C(=O)N/N=C/c2ccc(OC)c(COc3ccc(F)cc3)c2)c1,"inconclusive: 35.5 µM [inhibitor, single point]",–
CCOc1ccccc1CNC(=O)Cn1nc(C)c2c(C)n(-c3ccc(C)cc3)nc2c1=O,"inconclusive: 35.5 µM [inhibitor, single point]",–
Cc1cccc(NC(=S)N2CCOCC2)c1C,"inconclusive: 35.5 µM [inhibitor, single point]",–
O=C(Nc1ccc(F)cc1F)C1CCCN1S(=O)(=O)c1ccc(-c2ccc(=O)[nH]n2)s1 (configuration not stated),inactive,–
O=C(N/N=C1\CC(c2ccccc2)Oc2ccccc21)c1cccnc1 (configuration not stated),active: 3.98 µM,–
Cc1ccc(C)c(SCC(=O)OC/C(O)=C(\C#N)c2nc3ccccc3[nH]2)c1,"inconclusive: 35.5 µM [inhibitor, single point]",–
Cc1cc2nc(N3C(=O)CNC3=S)sc2cc1C,active: 3.16 µM,–
CCn1c(O)c(N=NC2=NC(=O)CS2)c2cc(C)ccc21,active: 12.6 µM,–
Oc1ccc(Br)cc1-c1ccn[nH]1,active: 6.31 µM,–
CCN(CC)C(=S)NC(=O)C12CC3CC(CC(C3)C1)C2,active: 5.01 µM,–
CCc1ccc(C2=NN(CCC(=O)NC3CCCCCC3)C(=O)CC2)cc1,"inconclusive: 35.5 µM [inhibitor, single point]",–
Fc1ccc(-n2cc(-c3ccccc3)c3c(=S)nc[nH]c32)cc1,active: 1 µM,–
CC(C)(C)c1ccc(C(=O)c2c[nH]c(C(=O)NCc3ccco3)c2)cc1,active: 12.6 µM,–
Cc1ccc(C)c(N2CCN(C(=O)c3ccc(Cn4c(=O)[nH]c5ccccc5c4=O)cc3)CC2)c1,"inconclusive: 35.5 µM [inhibitor, single point]",–
CNC(=S)N/N=C/c1cc(C)n(-c2ccc(Cl)c(Cl)c2)c1C,active: 4.47 µM,–
CC(=O)c1cccc(NC(=O)C(OC(=O)c2ccccc2NS(=O)(=O)c2cccs2)c2ccccc2)c1 (configuration not stated),"inconclusive: 5.62 µM [activator, single point]",–
C=CCn1c(SCC(=O)Nc2nc3ccccc3s2)nnc1-c1ccccc1O,"inconclusive: 35.5 µM [inhibitor, single point]",–
CC1CCN(CCNC(=S)Nc2ccc(Cl)cc2)CC1,"inconclusive: 35.5 µM [inhibitor, single point]",–
CS(=O)(=O)CCNCc1nc(-c2ccc3ncnc(Nc4ccc(OCc5cccc(F)c5)c(Cl)c4)c3c2)cs1,"inconclusive: 20 µM [inhibitor, single point] and inconclusive: 14.1 µM [inhibitor, single point]",–
